Experimental data published in the supplement of paper PMC3724861.
Some of the results follow.

test system: T1, Caupolican (Caup) homeodomain DNA-binding domain; assay: PBM E-score (8-mer, recovered from the published 9-mer minima) (E-score (dimensionless, -0.5 to 0.5)); Drosophila protein; higher = stronger relative binding preference, active = 0.31 or more
T1 sequence: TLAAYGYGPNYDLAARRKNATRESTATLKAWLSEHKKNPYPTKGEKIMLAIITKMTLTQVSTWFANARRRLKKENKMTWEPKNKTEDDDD
In short: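 Caup's homeodomain DNA-binding domain (residues 214-303) was produced by in vitro transcription and translation and applied at 100 nM to custom-designed protein binding microarrays. Each value is an enrichment score giving relative binding preference for a short DNA word; higher means stronger. Published 9-mer scores were the minimum of their two constituent 8-mer scores, and the 8-mer values were recovered from those minima. A cutoff of 0.31 marks candidate binding sequences.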

| Sequence | PBM E-score |
| --- | --- |
| AATCGTAA | inactive: 0.173 |
| CATGAATC | inactive: 0.0786 |
| GTGCTGTA | inactive: 0.115 |
| GAGACCGC | inactive: -0.221 |
| CGCTTGTC | inactive: 0.272 |
| AGCAGCGG | inactive: -0.202 |
| ACCGCTCT | inactive: -0.16 |
| CTGATCTA | inactive: 0.0465 |
| CTACCCCA | inactive: -0.12 |
| AAACGTTC | inactive: -0.0225 |
| AGCTGAGA | inactive: -0.134 |
| AGCTAGAA | inactive: -0.0295 |
| CAGCAACG | inactive: 0.0355 |
| GGACGACC | inactive: -0.118 |
| CCCGGTCG | inactive: -0.25 |
| ATGGCTCC | inactive: -0.0423 |
| CCGCGACC | inactive: -0.249 |
| TAAAGTTA | inactive: 0.083 |
| GAGGCTCC | inactive: -0.134 |
| AAATTGCC | inactive: -0.0176 |
| AGCCACGC | inactive: -0.235 |
| CAAGGGCC | inactive: -0.135 |
| AAGTTCCA | inactive: -0.0168 |
| ATAGTTTG | inactive: 0.145 |
| AAAACCCC | inactive: -0.151 |

| Sequence | PBM E-score |
| --- | --- |
| TCTACACA | inactive: 0.157 |
| CCCGCAGA | inactive: -0.21 |
| GCCTTGAA | inactive: -0.119 |
| AATCCTAG | inactive: -0.0191 |
| ATGCGAGG | inactive: -0.0607 |
| ATGCGATA | inactive: 0.12 |
| GCGGTTTA | inactive: 0.0192 |
| CAAATGAA | inactive: 0.0763 |
| TCCCCCCA | inactive: -0.352 |
| CGACTCCC | inactive: -0.0785 |
| ACCATACT | inactive: 0.137 |
| AAAGATGC | inactive: -0.0199 |
| TAAGAAGA | inactive: -0.0192 |
| ATACCGAT | inactive: 0.0703 |
| AATTATAA | inactive: 0.108 |
| TACCTTGA | inactive: 0.0541 |
| ATGAAAGG | inactive: -0.031 |
| GCGAACCA | inactive: -0.0128 |
| CCACGCAG | inactive: -0.167 |
| CATAAGAA | inactive: 0.146 |
| GGAGCCTA | inactive: -0.191 |
| AAGTGCGC | inactive: -0.114 |
| GTATAAAC | inactive: 0.125 |
| GAGGCGCA | inactive: -0.169 |
| CCCAAATA | inactive: -0.0284 |

| Sequence | PBM E-score |
| --- | --- |
| TAAATGGA | inactive: 0.0634 |
| GAAGACCC | inactive: -0.204 |
| AGTATGGG | inactive: -0.0126 |
| ATGTCAAG | inactive: 0.309 |
| AAATAGGC | inactive: -0.0525 |
| CTAATAGC | inactive: -0.0695 |
| ACCGTTGC | inactive: -0.134 |
| AGGTTGCG | inactive: -0.121 |
| TACGGTCA | inactive: -0.0134 |
| CGAGCTAC | inactive: 0.0214 |
| GATCATAA | inactive: 0.124 |
| AGTCCTAC | inactive: 0.0649 |
| AAACATAC | inactive: 0.292 |
| CATTAATC | inactive: 0.128 |
| AGGACCAT | inactive: -0.00978 |
| GGAGGTCA | inactive: -0.134 |
| ATGCGATC | inactive: 0.0365 |
| CACGACTG | inactive: 0.0114 |
| CCTACGGC | inactive: -0.245 |
| TCGCGGCA | inactive: -0.229 |
| ACCCCTCA | inactive: -0.091 |
| CCCGTCAG | inactive: -0.237 |
| AACTGTGA | inactive: 0.0854 |
| GGAAAGTA | inactive: 0.0062 |
| TGCGCCCA | inactive: -0.134 |

| Sequence | PBM E-score |
| --- | --- |
| TGACAAAA | inactive: 0.186 |
| AGATACAT | active: 0.368 |
| TCACGGGA | inactive: 0.00917 |
| CATCGCAA | inactive: 0.0975 |
| ACACGACT | inactive: 0.251 |
| GGACAACA | active: 0.336 |
| ACCTTCGA | inactive: -0.0125 |
| CAGCTTAA | inactive: 0.0168 |
| GAACCTGA | inactive: 0.00903 |
| ATAAGAGA | inactive: 0.064 |
| GTGAAATA | inactive: 0.161 |
| ATAAAACC | inactive: 0.0396 |
| CTACGCGA | inactive: -0.0597 |
| AACTTCAA | inactive: 0.166 |
| ATACATAG | inactive: 0.292 |
| CATGACAG | inactive: 0.151 |
| AAGCGAGC | inactive: -0.103 |
| TGGACCCA | ≥ -0.0464 |
| AACCAATC | ≥ 0.122 |
| AAATGAGT | inactive: 0.0817 |
| ACGAAAGT | inactive: 0.0147 |
| GCAAGCGC | inactive: -0.154 |
| GGACACCC | inactive: -0.0581 |
| ACCCCAAT | ≥ 0.0252 |
| AGTCAGTC | inactive: -0.0572 |

| Sequence | PBM E-score |
| --- | --- |
| GAGCTAAC | inactive: -0.0389 |
| AATTCCGG | inactive: -0.0689 |
| ACTCAACC | inactive: -0.0321 |
| GCCGGCCA | inactive: -0.229 |
| CGAGCGGC | inactive: -0.235 |
| CAAAGCAA | inactive: 0.0327 |
| CCCATCCA | inactive: -0.0121 |
| CGATGCCG | inactive: -0.203 |
| ATAGGAAA | inactive: 0.0909 |
| AGTCCTTC | inactive: -0.106 |
| ATCCTATC | inactive: 0.0788 |
| GTGAGACA | inactive: 0.0534 |
| GCCAAACC | inactive: -0.168 |
| AGTCAGTA | ≥ 0.115 |
| GCTCCTCA | inactive: -0.234 |
| ATAATTTC | inactive: 0.00693 |
| TATACTCA | inactive: 0.151 |
| ACGAACCC | inactive: -0.134 |
| CCGAAGAA | inactive: -0.128 |
| AGGTACAT | active: 0.389 |
| CCCTAGGA | inactive: -0.141 |
| AATCACGA | inactive: 0.0661 |
| CAACAGTC | inactive: 0.0344 |
| CGGTTTCC | inactive: -0.0505 |
| CTCGTATC | inactive: 0.124 |

| Sequence | PBM E-score |
| --- | --- |
| GAATTATC | inactive: 0.15 |
| CCCCATCC | inactive: -0.227 |
| CACAAAAC | inactive: 0.0882 |
| ATGGTCCA | ≥ 0.0351 |
| GACATCGC | inactive: 0.185 |
| ATAAGGTG | inactive: 0.0188 |
| TCGGACAA | inactive: 0.191 |
| TTAGATAA | inactive: 0.0531 |
| CGTGCATA | inactive: 0.0541 |
| CTGTCTGA | inactive: -0.00753 |
| ATGTCCGC | inactive: 0.204 |
| TCTGTCAA | inactive: 0.157 |
| AGAACGCA | inactive: -0.00793 |
| TCGATCAA | inactive: 0.00111 |
| TGAGCAAA | inactive: 0.0543 |
| AGAATTGC | inactive: 0.0219 |
| AGTGCTAC | inactive: 0.0654 |
| CCAAGGAC | inactive: -0.0684 |
| CAAGCTGC | inactive: -0.0962 |
| CAATAACA | inactive: 0.238 |
| GCCATCCC | inactive: -0.155 |
| ACTATTCT | inactive: 0.03 |
| CGTGCTTA | inactive: 0.0701 |
| ACAGACAC | inactive: 0.256 |
| GCTCATCA | inactive: -0.0651 |

| Sequence | PBM E-score |
| --- | --- |
| CCTACATC | inactive: 0.144 |
| ACACCGAT | inactive: 0.158 |
| AGTTGACA | inactive: 0.246 |
| CCGGCGTC | inactive: -0.2 |
| ACCGCATA | ≥ 0.0513 |
| CTCGCGTC | inactive: -0.0603 |
| CAATATAC | inactive: 0.151 |
| CCAGATAG | inactive: -0.0538 |
| AAAGTTAT | inactive: 0.0955 |
| CGGTATTC | inactive: 0.0875 |
| CTGCGTGA | inactive: -0.0361 |
| AAGATTGC | inactive: -0.00712 |
| GGGTTGCA | inactive: 0.0238 |
| GGTATGAA | inactive: 0.0695 |
| CATGCACC | inactive: 0.0878 |
| CTCGAGTC | inactive: -0.105 |
| GAGCCCAA | inactive: -0.0752 |
| ATTATATC | inactive: 0.158 |
| ATGGAGAC | inactive: 0.0375 |
| GCTAGCTA | inactive: -0.112 |
| CGAGGTGC | inactive: -0.0742 |
| ACGTAAGC | inactive: -0.0813 |
| AACGGAGT | ≥ 0.0179 |
| ATCTCGTA | ≥ 0.145 |
| TACTAGAA | inactive: 0.163 |

| Sequence | PBM E-score |
| --- | --- |
| GGTTAGAA | inactive: -0.043 |
| CAGCCATG | inactive: 0.0498 |
| CGTAACGC | inactive: -0.0474 |
| GCAGCTCC | inactive: -0.245 |
| CCCGCTTA | inactive: -0.134 |
| AGGTCAAG | inactive: -0.117 |
| CAAGGGTC | inactive: -0.17 |
| GGCTCTAA | inactive: -0.0637 |
| AGCAAATA | inactive: 0.111 |
| AAGCTATA | inactive: 0.0484 |
| CGAAATAC | inactive: 0.132 |
| GTTGCGTA | inactive: 0.0939 |
| AGTAAGAC | inactive: 0.0795 |
| GTACGAGA | inactive: 0.0421 |
| TCAGATCA | inactive: 0.0295 |
| ACATGACC | inactive: 0.303 |
| GGTGAAAC | inactive: 0.0128 |
| ATTTCGAA | inactive: 0.125 |
| CTTGTCCC | inactive: 0.186 |
| CTTTTATC | inactive: -0.116 |
| GAAACTCC | inactive: -0.157 |
| AATGCTAA | inactive: 0.0817 |
| GGCGATTA | inactive: -0.05 |
| AGCAAAGG | inactive: -0.00335 |
| AGTGTGGG | inactive: -0.143 |

| Sequence | PBM E-score |
| --- | --- |
| CAGGCGAC | inactive: -0.136 |
| GGTTAAGA | inactive: 0.0292 |
| ACGCAGAG | inactive: -0.108 |
| CGATTTCC | inactive: -0.0327 |
| CAGGTCAC | inactive: -0.141 |
| TAATCTGA | inactive: 0.0961 |
| ACGCTTTA | inactive: 0.00556 |
| GCCGTCGC | inactive: -0.192 |
| CTATCTGA | inactive: 0.0431 |
| CCCACCGA | inactive: -0.172 |
| GGCAGATA | inactive: -0.016 |
| GTGTGAAA | inactive: 0.0816 |
| ATCGAAGG | inactive: -0.0662 |
| ACGCTAAG | inactive: -0.0391 |
| GGACAGGA | inactive: 0.0585 |
| ATCACGAT | ≥ 0.113 |
| GTAGTACA | active: 0.346 |
| CGACCATC | inactive: -0.0645 |
| CATCCACA | inactive: 0.125 |
| GTCCCACA | inactive: -0.0729 |
| AGTAACTC | inactive: 0.0562 |
| AACTTGAG | inactive: -0.0948 |
| ATGTGCTA | inactive: 0.0682 |
| ATAGGGGG | inactive: -0.221 |
